Measurements published in PubChem BioAssay AID624296 (National Center for Advancing Translational Sciences (NCATS), 2012).
About 9,900 (2.8%) of roughly 350,000 compounds were called active. The inconclusive results got no clear call from the source; some entries with a clear call stand among them for comparison. Calls follow the shape of the dose curve; as a rule, active = well fitted activation curve with a large enough effect; inconclusive = small, poorly fitted or top-dose-only effect; inactive = no such curve, though single readings can be large or run the other way. No potency is given beside an inconclusive call; the fits are too rough.

Test: A quantitative high throughput screen for small molecules that induce DNA re-replication in MCF 10a normal breast cells. Also: nearly all actives have a fitted effect of over 50% in size. As to activity, positive = re-replication: % of control where 0% means no effect.
Details: MCF 10A DNA re-replication, Hoechst nuclear intensity, 48 h; activity, positive = re-replication: at 46.1 µM (top of the series)
Potency is read from the fitted curve at half-maximal effect; tags tell the direction and shape of the fitted curve.

Structure (SMILES) | Potency | activity, positive = re-replication
Cc1c(C(=O)NCc2ccco2)cccc1[N+](=O)[O-] | inconclusive [activator, partial curve, poor fit] | –
CCN(c1ccccc1)c1nc(C#N)nc(N(CC)c2ccccc2)n1 | inconclusive [activator, single point] | –
O=C(O)CC1(c2ccc(F)cc2)C2CC3CC(C2)CC1C3 (centres undefined) | inconclusive [activator, partial curve, poor fit] | –
CCN1Cc2c(/C=C/c3ccccc3)nc3ccc(OC)cc3c2N(c2cccc(Cl)c2)C1 | active: 25.9 µM | –
Oc1ccc(Cl)cc1-c1cc(-c2ccco2)[nH]n1 | inconclusive [activator, single point] | –
COCCNC(=O)c1cccc(OC2CCN(Cc3ccc(C(C)C)cc3)CC2)c1 | inconclusive [activator, single point] | –
COc1ccc(OCC(=O)NC2CCCc3ccccc32)cc1 (centres undefined) | – | inactive: -3.36%
CC(NC(=O)CC(c1ccccc1)c1cc(Cl)ccc1O)c1ccccc1 (centres undefined) | inconclusive [activator, single point] | –
N#Cc1sc(NCc2cccc(Cl)c2)nc1Cl | inconclusive [activator, single point] | –
Cc1cc(N2CCCC2)nc2ccc(NC(=S)NCCCOC(C)C)cc12 | inconclusive [activator, full curve, poor fit] | –
c1ccc(-c2nc(N3CCNCC3)nc3ccccc23)cc1 | active: 0.708 µM | –
C/C(=N\NC(=O)c1ccccc1O)c1ccc(NC(=O)c2ccccc2)cc1 | – | inactive: -1.02%
O=C(/C=C/c1ccc2c(c1)OCCCO2)c1ccc2ccccc2c1O | active: 18.4 µM | –
O=C(NCCc1ccccc1)C1CCCN1S(=O)(=O)c1ccccc1 (centres undefined) | inconclusive [activator, single point] | –
COc1ccc(-c2ccc(-c3noc(-c4ccccc4OC)n3)c(OC)n2)cc1 | inconclusive [activator, partial curve, poor fit] | –
Cc1cc(C)c2nc(C)cc(N/N=C/c3ccc(O)cc3)c2c1 | active: 14.6 µM | –
Cc1ccc(-n2cc(CNCCc3cscn3)c(-c3ccc(F)cc3)n2)cc1 | inconclusive [activator, single point] | –
COC(=O)c1cc(C(=O)c2c(C)cc3ccccn23)cc([N+](=O)[O-])c1 | inconclusive [activator, single point] | –
CCc1cc2ccc(C)cc2nc1SCC(=O)N1CCN(C(=O)c2ccco2)CC1 | inconclusive [activator, partial curve, poor fit] | –
COc1ccc([C@H]2CC(=O)C=C(c3ccc(F)cc3OCc3ccccc3)C2)cc1OC | inconclusive [activator, full curve, poor fit] | –
Oc1ccc(/C(Cc2ccc3ccccc3n2)=N\Nc2ccccc2)c(O)c1 | inconclusive [activator, single point] | –
CC(=O)c1cc(C(=O)N2CCCC(C(=O)c3ccc(Cl)cc3)C2)cs1 (centres undefined) | – | inactive: 9.31%

Structure (SMILES) | Potency | activity, positive = re-replication
Cc1ccc(CNC2CCCCC2)s1 | – | inactive: 0.99%
CC(C)CC(=O)N(c1ccc(F)cc1)C1C=CS(=O)(=O)C1 (centres undefined) | inconclusive [activator, single point] | –
O=c1ccc2cc3c(-c4ccccc4)coc3cc2o1 | active: 23.1 µM | –
COc1ccccc1-c1ccc(/C=C2/C=C(C)OC2=O)o1 | active: 20.6 µM | –
C=CCOC(=O)c1cc(-c2ccc(/C=C3\C(=O)NC(=O)C(C#N)=C3C)o2)ccc1Cl | inconclusive [activator, single point] | –
CC(C)(C)c1ccc(C(=O)Nc2ccc(S(N)(=O)=O)cc2)cc1 | inconclusive [activator, partial curve, poor fit] | –
COc1ccc(NC(=O)C2CCOC(C)(C)C2)cc1 (centres undefined) | inconclusive [activator, full curve] | –
Clc1ccc(-c2nn3c(C4COc5ccccc5O4)nnc3s2)cc1 (centres undefined) | inconclusive [activator, partial curve, poor fit] | –
COc1ccccc1NC(=O)NCCCCc1ccccc1 | – | inactive: 16%
CC(C)Oc1cccc(C(=O)Nc2ccc(Br)cc2F)c1 | inconclusive [activator, single point] | –
O=c1c2cc(Br)ccc2nc(-c2ccc(Cl)cc2)n1O | inconclusive [activator, single point] | –
CCOc1ccc(S(=O)(=O)Nc2ccc(C(=O)NCC(c3ccc(OC)cc3)N3CCOCC3)cc2)cc1 (centres undefined) | inconclusive [activator, single point] | –
CCOc1ccc(NC(=S)N2CCN(S(=O)(=O)c3ccccc3)CC2)cc1 | – | inactive: -4.49%
CC(C)(CN1CCNCC1)NS(=O)(=O)c1ccc(Cl)cc1 | active: 11.6 µM | –
Cc1ccccc1OCC(O)CNC1CCC(NCC(O)COc2ccccc2C)CC1 (centres undefined) | inconclusive [activator, full curve, poor fit] | –
c1ccc(Cn2ncc3c(N4CCN(C(c5ccccc5)c5ccccc5)CC4)ncnc32)cc1 | inconclusive [activator, partial curve, poor fit] | –
O=C(c1ccc2c3c(cccc13)CC2)C1CCCN(Cc2ccncc2)C1 (centres undefined) | inconclusive [activator, partial curve, poor fit] | –
Cc1nn(C)c(C)c1NC(=O)COc1ccc(Cl)cc1 | – | inactive: -1.49%
Cc1ccccc1OCCc1c(C)[nH]c(=S)[nH]c1=O | inconclusive [activator, full curve, poor fit] | –
COc1cc(/C=N/N=C2/C(=O)Nc3ccccc32)ccc1O | inconclusive [activator, single point] | –
CCN(CC)CCNC(Cc1ccccc1)c1cccc(OC)c1 (centres undefined) | – | inconclusive: 38.2% [activator]
Cc1noc(C)c1S(=O)(=O)N(CC(=O)NC(C)c1ccccc1)c1ccc(C(C)C)cc1 (centres undefined) | – | inactive: 12.2%
